In all, about 340,000 compounds went through this assay and about 12,000 (3.5%) were called active. Inconclusive results, whose numbers are uncertain, are shown with a selection of clear calls. Calls follow the shape of the dose curve; as a rule, active = well fitted inhibition curve with a large enough effect; inconclusive = small, poorly fitted or top-dose-only effect, or another doubt; inactive = no such curve, though single readings can be large or run the other way. Potencies of inconclusive entries are left out as doubtful fits.
test: qHTS Assay for Inhibitors of Hepatitis C Virus (HCV); settings: Huh7.5.1 HCVcc-Cre (HCVcc is cell-culture hepatitis C virus) infection, luciferase reporter, 44 h; series mostly up to 41.8 µM
Procedure, shortened: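 1,000 cells/well; 4 h culture; + compound; + HCVcc-Cre (~0.5 moi); 44 h; luciferase substrate, RT 15 min; read 15 sec.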
Potency is read from the fitted curve at half-maximal effect; tags tell the direction and shape of the fitted curve.

Structure (SMILES)	Potency
CN(CC(=O)Nc1ccccc1C(=O)Nc1ccccc1)C1CCCCC1	inconclusive [inhibitor, partial curve]
Cc1cc([N+](=O)[O-])c2ccccc2[n+]1[O-]	active: 11.2 µM
c1cncc(-c2nc(NCCCn3ccnc3)c3ccccc3n2)c1	inconclusive [inhibitor, partial curve]
CN(C)c1ccc(C2Nc3ccccc3C(=O)N2NS(=O)(=O)c2ccccc2)cc1 (stereo not given)	inconclusive [inhibitor, single point]
CCCCn1c(=O)c(C(=O)NCc2ccc(Cl)cc2)c(O)c2ccccc21	inconclusive [inhibitor, single point]
O=C(Nc1nc2ccccc2s1)c1cc(-c2ccccc2)nn1-c1ccccc1	inconclusive [inhibitor, full curve, poor fit]
COc1ccc(CC(=O)N(CC2CCCO2)c2nc3ccccc3s2)cc1 (stereo not given)	inactive
CC(c1ccon1)N(C)C(=O)CCc1nnc(Cc2ccc(-c3ccccc3)cc2)o1 (stereo not given)	inconclusive [inhibitor, single point]
Cn1cc(CNC(=O)C2CCCCC2)cn1	inconclusive [inhibitor, single point]
O=C(N/N=C/c1ccccn1)c1cc(-c2ccc3ccccc3c2)n[nH]1	inactive
CC(C)(C)NC(=O)CN(CC1CCCO1)C(=O)CNS(=O)(=O)c1ccc(F)cc1 (stereo not given)	inactive
COc1cc(OC)cc(C(=O)NNC(=O)NC2CCCCC2)c1	inactive
CCOc1ccc(N(CC(=O)N2CC=C(c3ccccc3)CC2)S(=O)(=O)c2c(C)noc2C)cc1	inactive
CCN(C[C@H]1N[C@@](C)(C(=O)OC)[C@H]2C(=O)N(C)C(=O)[C@@H]12)S(=O)(=O)c1ccc(-c2ccccc2)cc1	inconclusive [inhibitor, single point]
Cn1c(Sc2ccc(Br)cc2)c(C=O)c2ccccc21	inconclusive [inhibitor, single point]
CC(C)(C)NC(=O)CN(C(=O)C1CSC(=O)C1)c1ccccc1F (stereo not given)	inactive
O=S(=O)(NCC(c1ccco1)N1CCN(c2ccccc2F)CC1)c1ccc2c(c1)OCCO2 (stereo not given)	inconclusive [inhibitor, single point]
COc1ccc(-c2cc(C(F)(F)F)n3nc(C(=O)NCCCN4CCOCC4)cc3n2)cc1	active: 11.2 µM
COc1ccc(CNc2ccc([N+](=O)[O-])cc2C)cc1	inconclusive [inhibitor, partial curve]
O=C(CC1SC(=O)N(c2ccccc2)C1=O)Nc1ccccc1 (stereo not given)	inactive
CC(=C/c1ccccc1)/C=N/NC(=O)c1cccs1	inactive
O=C(N/N=C/c1ccc(OCC2COCCO2)cc1)c1ccc(Br)cc1 (stereo not given)	inconclusive [inhibitor, single point]
Cc1ccc(-c2csc(N3CCN(CCCn4c(-c5ccncc5)nc5ccccc54)CC3)n2)cc1	inconclusive [inhibitor, partial curve]

Structure (SMILES)	Potency
O=S(=O)(Nc1ccc(O)c2ccccc12)c1ccc(F)cc1	inconclusive [inhibitor, single point]
CNC(=S)N/N=C1\CC(c2ccccc2)Oc2ccccc21 (stereo not given)	inconclusive [inhibitor, partial curve]
CCCC[C@@H]1CN=C(N)N1CCc1cc(C(F)(F)F)cc(C(F)(F)F)c1	inconclusive [inhibitor, single point]
COc1ccc2sc(N(CCN(C)C)C(=O)/C=C/c3cccs3)nc2c1	active: 15.8 µM
Cc1ccc2nc3c(cc(S(=O)(=O)c4ccccc4)c(=N)n3Cc3ccco3)c(=O)n2c1	inconclusive [inhibitor, single point]
O=C(CCc1nnc2n(Cc3ccc(Cl)cc3)c(=O)c3ccccc3n12)N1CCN(c2ccccn2)CC1	active: 3.55 µM
Cc1ccc2oc(=O)c3cc(C(=O)NCCCN4CC(C)CC(C)C4)sc3c2c1 (stereo not given)	inconclusive [inhibitor, full curve]
Cc1cccc(NC(=O)c2c(C)nn(-c3ccccc3)c2Cl)c1	inconclusive [inhibitor, single point]
Cc1ccn(CCC(=O)N2CCc3ccccc32)n1	inactive
O=C(CN1c2ccccc2Sc2ccccc21)N/N=C/c1ccc([N+](=O)[O-])cc1	inconclusive [inhibitor, single point]
Cc1c(CCC(=O)NCCCn2ccnc2)c(=O)oc2cc3occ(C(C)(C)C)c3cc12	inconclusive [inhibitor, partial curve]
Cc1cc(C)cc(Oc2coc3cc(O)ccc3c2=O)c1	inactive
COc1ccc(OC)c(NC(=O)C23CC4CC(C2)CC(n2cnc(Br)n2)(C4)C3)c1	inconclusive [inhibitor, partial curve]
CN(CCc1ccccn1)C(=O)Nc1ccc(F)cc1	inactive
Cc1cccc(N2CCN(C(=O)c3ccc(N4CCCC4=O)cc3)CC2)c1C	inconclusive [inhibitor, single point]
CCN1CCC(CNCc2cn(-c3ccc(OC)cc3)nc2-c2ccccc2Cl)C1 (stereo not given)	active: 11.2 µM
COc1ccc(C(=O)COC(=O)c2sc(C)nc2C)cc1F	inconclusive [inhibitor, full curve, poor fit]
C=CCn1c(=N)n(CC(O)COc2ccccc2OC)c2ccccc21 (stereo not given)	inconclusive [inhibitor, single point]
Cc1nn(-c2ccccc2)c(Cl)c1/C=N/NC(=O)OC(C)(C)C	inactive
CN(C)CCOC(c1ccccc1)c1ccccc1	inconclusive [inhibitor, single point]
CCOCCCNc1ncnc2c1[nH]c1ccccc12	inconclusive [inhibitor, single point]
CCCc1c(C(=O)N/N=C/c2ccc(OCc3ccccc3)c(OC)c2)nnn1-c1nonc1N	inconclusive [inhibitor, full curve, poor fit]
